PubChem BioAssay AID1030 (National Center for Advancing Translational Sciences (NCATS), 2008)
The campaign covered roughly 220,000 compounds. About 16,000 (7.3%) were called active. Inconclusive means that the source gave no clear call. Such entries were picked first, then a sample of the others. Calls come from the whole dose curve; as a rule, active = well fitted inhibition curve with a large enough effect (not every such curve was filed as active); inconclusive = small, poorly fitted or top-dose-only effect, or another doubt; inactive = no such curve, though single readings can be large or run the other way. Potencies of inconclusive entries are left out as doubtful fits.

molecular target: Aldehyde dehydrogenase 1A1 (Homo sapiens) (UniProt P00352); experiment: qHTS Assay for Inhibitors of Aldehyde Dehydrogenase 1 (ALDH1A1); conditions: Purified ALDH1A1, NADH fluorescence, propionaldehyde substrate; series mostly up to 75.3 µM;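 for activity, negative = inhibition: plate controls were no enzyme wells and a reference inhibitor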
UniProt P00352, sequence (P00352 whole entry, looked up): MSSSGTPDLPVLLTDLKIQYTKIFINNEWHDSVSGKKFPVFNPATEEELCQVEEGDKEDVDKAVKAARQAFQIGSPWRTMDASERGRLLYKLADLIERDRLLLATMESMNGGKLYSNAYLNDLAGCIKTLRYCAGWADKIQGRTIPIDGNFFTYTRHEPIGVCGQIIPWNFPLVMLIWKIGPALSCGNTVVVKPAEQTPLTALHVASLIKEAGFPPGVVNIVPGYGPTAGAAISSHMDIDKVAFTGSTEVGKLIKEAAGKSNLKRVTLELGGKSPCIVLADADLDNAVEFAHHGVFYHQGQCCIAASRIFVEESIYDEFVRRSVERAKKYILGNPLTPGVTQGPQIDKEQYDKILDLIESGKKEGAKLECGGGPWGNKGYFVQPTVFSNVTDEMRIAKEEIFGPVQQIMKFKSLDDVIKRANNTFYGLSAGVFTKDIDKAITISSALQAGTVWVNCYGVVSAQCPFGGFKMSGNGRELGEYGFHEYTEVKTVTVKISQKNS
Potency is the fitted concentration of half-maximal effect; tags give direction and shape of the fitted curve.

| SMILES | Potency | activity, negative = inhibition |
| --- | --- | --- |
| C/C(=N\NC(=O)c1ccccc1)c1ccc(N2CCCCC2)cc1 | inactive |  |
| O=C(CSc1nc(O)cc(=O)n1-c1ccccc1)c1ccc(Br)cc1 | inconclusive [inhibitor, partial curve] |  |
| c1ccc(CCC2=NCCn3cccc32)cc1 | inconclusive [inhibitor, single point] |  |
| COCCCn1c(SCC(=O)N2CCc3ccccc32)nnc1-c1ccco1 | inconclusive [inhibitor, single point] |  |
| N#CCCn1c(=O)c(-c2cccs2)nc2cnc(N3CCNCC3)nc21 | inconclusive [inhibitor, partial curve] |  |
| COC(=O)C1CCN(C(c2cc(OC)c(OC)c(OC)c2)c2sc3nc(C)nn3c2O)CC1 (configuration not stated) | inactive |  |
| Cc1nc2c(C(=O)N3CCCCC3)cnn2c(C)c1Cc1ccccc1F | inconclusive [inhibitor, partial curve] |  |
| COc1ccc(-c2noc(C(=O)NCc3ccccc3Cl)n2)cc1OC | inactive |  |
| CCn1c(=O)c(C(=O)CN2CCN(S(=O)(=O)c3cc(C)ccc3C)CC2)c(N)n(Cc2ccccc2)c1=O | inactive |  |
| O=C(Cn1c(=O)n(Cc2ccco2)c(=O)c2c3c(sc21)CCCCC3)c1ccccc1 | inconclusive [inhibitor, single point] |  |
| COC(=O)c1ccccc1NC(=O)CN(C)S(=O)(=O)c1ccc(OC)c(C)c1 | inconclusive [inhibitor, partial curve] |  |
| O=C1OC(/C=C/c2ccc(Cl)cc2)=NC/1=C/c1ccco1 | active: 2 µM |  |
| CCOC(=O)Cn1nnnc1CN(Cc1ccc(OC)cc1)Cc1cc2cc(C)ccc2[nH]c1=O | inconclusive [inhibitor, partial curve] |  |
| C/C(=N\NC(=O)c1nn(C)c(C)c1Br)c1ccc(NC(=O)c2ccc(C)s2)cc1 | inconclusive [inhibitor, partial curve] |  |
| C=CCNc1nc(Nc2ccc([N+](=O)[O-])cc2)nc(N2CCCC2)n1 | active: 31.6 µM |  |
| O=C1CSc2ccc(C(=O)Nc3cccc(S(=O)(=O)Nc4ccc(Br)cc4)c3)cc2N1 | active: 10 µM |  |
| C=C(Br)CN1CCN(CC(=C)Br)CC1 | inconclusive [inhibitor, single point] |  |
| O=C1Nc2ccccc2/C1=N/N=C/c1ccc(-c2ccc([N+](=O)[O-])cc2)o1 | inactive |  |
| Cc1ccc(-n2[nH]c(C)c(/C=N/n3c(C)nc4ccccc4c3=O)c2=O)cc1 | inconclusive [inhibitor, single point] |  |
| Cc1oc(-c2cccs2)[n+]([O-])c1C | inconclusive [inhibitor, single point] |  |
| O=C(Nc1ccc(Cl)cc1)C1c2cccc[n+]2CC(=O)N1Cc1ccc2c(c1)OCO2 (configuration not stated) | inconclusive [inhibitor, single point] |  |
| Cc1ccc2[nH]c(=O)c(CNC(C)C)cc2c1 | inconclusive [inhibitor, single point] |  |
| C/C(=N\NC(=O)Cc1csc(N2CCOCC2)n1)c1ccc(Cl)c(Cl)c1 | inactive |  |
| Cc1ccc(-c2csc(NC(=O)C3CC(=O)N(Cc4ccco4)C3)n2)cc1 (configuration not stated) | inconclusive [inhibitor, single point] |  |

| SMILES | Potency | activity, negative = inhibition |
| --- | --- | --- |
| CCOc1ccc(S(=O)(=O)NCC2CCCO2)c2cccnc12 (configuration not stated) | inconclusive [inhibitor, partial curve] |  |
| C[C@H](OP(=O)(O)O)[C@H](N)C(=O)O |  | inactive: -3.77% [at 13.5 µM] |
| O=c1c2ccccc2nc2n1C1(CCCCC1)Cc1ccccc1-2 | inconclusive [inhibitor, single point] |  |
| CC(=O)N(C)N1c2ccccc2CCc2ccccc21 | inactive |  |
| CCOC(=O)C(/C(C)=N/NC(=O)c1ccccc1[N+](=O)[O-])C(C)C (configuration not stated) | inconclusive [inhibitor, single point] |  |
| CCCN1C(=O)C(NC(=O)c2ccncc2)(C(F)(F)F)C2=C1CC(C)(C)CC2=O (configuration not stated) | active: 7.08 µM |  |
| CC(O)CNCCNCc1c(OCc2ccccc2)ccc2ccccc12 (configuration not stated) | active: 28.2 µM |  |
| CCc1nn2c(NCCOC)cc(C)nc2c1-c1ccc(F)cc1 | inconclusive [inhibitor, single point] |  |
| Cc1csc(Sc2ccc(C(=O)OCC(=O)Nc3ccc(OC(F)(F)F)cc3)cc2[N+](=O)[O-])n1 | inconclusive [inhibitor, single point] |  |
| Clc1ccc(-c2csc(N3CCc4ccccc4C3)n2)cc1 | inactive |  |
| C=CCc1c(C)nc(SCC(=C)C)[nH]c1=O | inactive |  |
| Clc1ccccc1Sc1ccc(-c2ccccn2)s1 | inconclusive [inhibitor, single point] |  |
| COc1ccc(OC)c2c(C)cc(N3CCN(C(=O)c4ccc(F)cc4)CC3)nc12 | inconclusive [inhibitor, single point] |  |
| CCN(Cc1ccncc1)S(=O)(=O)c1ccc(C(C)=O)cc1 | active: 7.94 µM |  |
| CC(=O)NCCOC(=O)Nc1sc(=S)n(C)c1C | inconclusive [inhibitor, single point] |  |
| COCCN(C(=S)Nc1ccccc1OC)C1CCN(C(C)C)CC1 | inactive |  |
| COc1cccc(OC)c1C(=O)NC(=S)NCc1ccco1 | inconclusive [inhibitor, single point] |  |
| CC(NC(N)=O)C12CC3CC(CC(C3)C1)C2 (configuration not stated) | inconclusive [inhibitor, single point] |  |
| O=C(CCc1ccccc1)c1ccc2c(c1)OCCCO2 | inconclusive [inhibitor, single point] |  |
| CC(C)Cn1c(=S)[nH]c2ccccc2c1=O | inconclusive [inhibitor, partial curve] |  |
| O=C1C(N2CCOCC2)=C(n2nnc3ccccc32)C(=O)c2ccccc21 | active: 1.26 µM |  |
| N#Cc1c(-c2ccccc2F)cc(-c2cccnc2)nc1N | inconclusive [inhibitor, partial curve] |  |
| Cc1ccccc1NC(=O)NCCc1c[nH]c2ccccc12 | inconclusive [inhibitor, single point] |  |
| CCOc1cc(/C=N/NC(=O)c2nn(C)cc2Br)ccc1OCc1ccccc1Cl | inactive |  |

| SMILES | Potency | activity, negative = inhibition |
| --- | --- | --- |
| CCN(CC)C(=O)C1CC(=O)N(c2ccc(OC)cc2)C1c1ccc(OC)cc1 (configuration not stated) | inconclusive [inhibitor, partial curve] |  |
| COc1ccc(C2=C(CC(=O)O)C(=O)CC2)cc1 | inconclusive [inhibitor, partial curve] |  |
| c1ccc2oc(SCc3cn4ccccc4n3)nc2c1 | active: 3.16 µM |  |
| COc1ccc(C2NC(=O)NC(C)=C2C(C)=O)cc1 (configuration not stated) | inconclusive [inhibitor, single point] |  |
| COc1ccc(C(=O)CC(=O)c2ccc(C(C)(C)C)cc2)cc1 | inconclusive [inhibitor, single point] |  |
| CSc1ccc(C2c3[nH]c4ccccc4c3CCN2C(=O)c2ccnn2C)cc1 (configuration not stated) | inconclusive [inhibitor, single point] |  |
| N#CCCn1c(=O)c(CCc2ccccc2)nc2cnc(OCc3ccccc3)nc21 | inconclusive [inhibitor, partial curve] |  |
| COc1ccc(CNC(=O)COC(=O)CC2CCCC2)cc1 | active: 7.94 µM |  |
| Cc1ccsc1/C=N/NC(=O)c1ccc(-n2cccc2)cc1 | inconclusive [inhibitor, single point] |  |
| CC(C)(SCc1ccccc1)[C@H](N)C(=O)O |  | inactive: 1.37% [at 13.5 µM] |
| Cc1ccc(NC(=O)CC2C(=O)OCC3CCCCN32)cc1Cl (configuration not stated) | inconclusive [inhibitor, single point] |  |
| CCC(Sc1nc2c(c(=O)n1CC)SC(C)C2)C(=O)OC (configuration not stated) | inconclusive [inhibitor, single point] |  |
| Cc1ccc(-n2c(Cc3cccs3)nnc2SCC(=O)OC(C)C)cc1 | active: 5.62 µM |  |
| Nc1cc(Oc2cccnc2)cc([N+](=O)[O-])c1 | inconclusive [inhibitor, single point] |  |
| Oc1c(N=NC(=S)Nc2ccccc2F)c2ccccc2n1Cc1ccc(Cl)cc1 | active: 10 µM |  |
| Cc1cccc(C2c3[nH]c4ccccc4c3CCN2C(=O)c2nn(C)c(=O)c3ccccc23)n1 (configuration not stated) | inactive |  |
| COc1ccc(-c2ccc(SCc3ccccn3)nn2)cc1OC | inconclusive [inhibitor, partial curve] |  |
| Cc1ccc(S(=O)(=O)Nc2cc(C)c(O)cc2C)cc1 | inconclusive [inhibitor, partial curve] |  |
| COc1ccc2c(c1)C1(C)CC(C)(C)N2C(=O)N1c1ccccc1 (configuration not stated) | inconclusive [inhibitor, single point] |  |
| COC(=O)c1cc(NC(=O)CSc2nnc(CN3CCOCC3)n2C)ccc1Cl | inconclusive [inhibitor, single point] |  |
| COc1ccc2[nH]c(=O)c(CN(C(=O)C3CCCO3)c3ccc(C)cc3)cc2c1 (configuration not stated) | inconclusive [inhibitor, single point] |  |
| CCN(CC)CCCNCC(=O)Nc1ccc2c(c1)CCC2 | inconclusive [inhibitor, single point] |  |
| O=c1c2[nH]c3ccccc3c2ncn1CCC1=CCCCC1 | inconclusive [inhibitor, single point] |  |
| C=CCN1C2CCCC1CC(NC(=O)Nc1cc(C)cc(C)c1)C2 (configuration not stated) | inactive |  |
